The target of experiment [1] is Histamine N-methyltransferase (Homo sapiens) (UniProt P50135). Put plainly: Confirmatory Screen for Target Class Profiling of Small Molecule Inhibitors of Methyltransferases (AID 1745852).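 Further: inhibitor potency for blocking SAH production.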 The note with it: MTase-Glo luminescence, SAH detection, recombinant enzyme; measured here: HNMT inhibition potency.
Experiment [2] in a line: qHTS drug screen for cell cycle checkpoint inhibitors in PARPi-resistant BRCA-mutant ovarian cancer cell lines. (AID 1963452). The conditions noted are these: PEO1/OlaR viability, CellTiter-Glo luminescence, 96 h. Summed up:
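PEO1, PEO4 and PEO1/OlaR ovarian cancer cells, 600 per well, exposed 96 h at 37C to a dilution series. Viability read by CellTiter-Glo luminescence, normalized to DMSO and empty wells; activity summarized as Z-AUC.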

Experiment [3] in a line: qHTS for identification of novel therapeutic agents for treatment of microphthalmiaassociated transcription factor (MiT) renal cell carcinoma (RCC) (AID 1963991). The conditions noted are these: CellTiter-Glo, 48 h; for z-score: stronger effect = lower value. The gist of the method:
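Three TFE3-fusion RCC cell lines (UOK109, UOK124, UOK145), 500 cells/well, were exposed to the 1912-compound MIPE 4.0 library for 48 hours at 37 C. Viability was read by CellTiter-Glo luminescence, normalised to DMSO (100%) and empty wells (0%), with 11-concentration curve fits.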

Experiment [4] addresses Phenylethanolamine N-methyltransferase (Homo sapiens) (UniProt P11086). The experiment is described as follows: Confirmatory Screen for Target Class Profiling of Small Molecule Inhibitors of Methyltransferases (AID 1745852).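 Further: inhibitor potency for blocking SAH production.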 The note with it: MTase-Glo luminescence, SAH detection, recombinant enzyme; measured here: PNMT inhibition potency.
Setting [5] is: measured here: PEO1 parental viability.
Where [6] appears, read: TFE3-RCC viability, measured here: UOK124 cell viability.
Where [7] appears, read: TFE3-RCC viability, measured here: UOK145 cell viability.
The mark [8] stands for this setting: TFE3-RCC UOK109 viability, measured here: UOK109 Z-AUC.
Setting [9] is: TFE3-RCC viability, measured here: UOK124 Z-AUC.
[10] abbreviates: TFE3-RCC viability, measured here: UOK145 Z-AUC.

The other results are listed elsewhere or left out. Shown are side measurements of this screen, not its main read-out; they come without a call. For some assays here: The list favours compounds with an active or inconclusive main result. Potencies come from curve fits of mixed quality, noted in brackets.
Tags describe the fitted curve by direction and shape.

UniProt P50135, sequence (P50135 whole entry, looked up): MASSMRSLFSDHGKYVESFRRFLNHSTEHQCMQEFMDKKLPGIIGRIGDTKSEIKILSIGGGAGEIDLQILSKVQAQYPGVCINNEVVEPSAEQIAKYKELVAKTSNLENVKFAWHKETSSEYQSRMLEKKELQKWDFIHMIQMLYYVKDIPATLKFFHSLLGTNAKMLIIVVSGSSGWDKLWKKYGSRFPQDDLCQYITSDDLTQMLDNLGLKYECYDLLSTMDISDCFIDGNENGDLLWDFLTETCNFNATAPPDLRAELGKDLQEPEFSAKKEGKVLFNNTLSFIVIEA
UniProt P11086, sequence (P11086 whole entry, looked up): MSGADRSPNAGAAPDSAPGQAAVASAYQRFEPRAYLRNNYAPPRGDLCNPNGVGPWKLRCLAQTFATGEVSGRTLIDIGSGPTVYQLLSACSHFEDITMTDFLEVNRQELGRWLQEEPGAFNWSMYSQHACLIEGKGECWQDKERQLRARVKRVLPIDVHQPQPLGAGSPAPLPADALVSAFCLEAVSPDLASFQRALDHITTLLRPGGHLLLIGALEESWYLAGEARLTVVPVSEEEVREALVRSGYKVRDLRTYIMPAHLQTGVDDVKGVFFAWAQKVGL

In the case of `CCN(CC)CCOc1ccc(Nc2ncc3cc(-c4c(Cl)cccc4Cl)c(=O)n(C)c3n2)cc1`, the IC50 in experiment [1] is 7.69 µM [falling, partial curve]. The AC50 in experiment [2] (setting [5]) was 0.549 µM [falling, full curve]; in experiment [2] (measured here: PEO4 viability) it was 0.389 µM [falling, full curve]; in experiment [3] (setting [6]) it was 0.469 µM [falling, full curve]; in experiment [3] (setting [7]), 1.32 µM [falling, partial curve].
Take `NC1(Cc2ccc(Cl)cc2)CCN(c2ncnc3[nH]ccc23)CC1`: the IC50 in experiment [1] was 10.8 µM [falling, partial curve]; in experiment [4], 24.1 µM [falling, partial curve]. The AC50 is 17.4 µM [falling, single point] in experiment [2] (setting [5]); 15.5 µM [falling, partial curve] in experiment [2] (measured here: PEO4 viability); 18.7 µM [falling, partial curve] in experiment [3] (setting [6]); 18.7 µM [falling, partial curve] in experiment [3] (setting [7]). Further, the z-score in experiment [3] (setting [8]) is 0.588; in experiment [3] (setting [9]) it was 0.563; in experiment [3] (setting [10]) it was -0.407.
Turning to `COCCOc1ccc2c(c1)ncn2-c1ccc2cccc(N3CCC(N)CC3)c2n1`, the half-maximal inhibitory concentration (IC50) in experiment [1] is 21.5 µM [falling, partial curve]. The AC50 in experiment [2] (setting [5]) is 15.5 µM [falling, single point]; in experiment [2] (measured here: PEO4 viability) it was 24.5 µM [falling, single point]; in experiment [3] (setting [6]), 23.5 µM [falling, partial curve]; in experiment [3] (setting [7]), 16.6 µM [falling, partial curve]. Besides, the results for the z-score in experiment [3] (setting [8]), in experiment [3] (setting [9]) and in experiment [3] (setting [10]) were -0.27, 0.495 and -0.68, respectively.
On to `CNC(=O)c1ccc2c(C(=Nc3cccc(CN(C)C)c3)c3ccccc3)c(O)[nH]c2c1`, for which the IC50 in experiment [1] is 3.41 µM [falling, full curve]. In addition, the AC50 is 27.5 µM [falling, single point] in experiment [2] (setting [5]); 17.4 µM [falling, partial curve, poor fit] in experiment [2] (measured here: PEO4 viability); 11.8 µM [falling, partial curve] in experiment [3] (setting [6]). For the same compound, the figures for the z-score in experiment [3] (setting [8]), in experiment [3] (setting [9]) and in experiment [3] (setting [10]) were -1.01, 0.121 and 0.646, respectively.

The values are drawn from PubChem BioAssay (NCATS).
